From PubChem BioAssay AID1460 (National Center for Advancing Translational Sciences (NCATS), 2008)
About 5,800 (2.1%) of roughly 270,000 compounds were called active. The shares of active, inactive and inconclusive entries below differ from those in the screen. Calls follow the shape of the dose curve; as a rule, active = well fitted inhibition curve with a large enough effect; inconclusive = small, poorly fitted or top-dose-only effect; inactive = flat fitted curve, though single readings scatter. Potencies of inconclusive entries are doubtful fits and often do not repeat.

Target: Microtubule-associated protein tau (Homo sapiens) (UniProt P10636)
Test: qHTS for Inhibitors of Tau Fibril Formation, Thioflavin T Binding; also: nearly all actives have a fitted effect of over 55% in size
Conditions: recombinant tau K18 P301L (four-repeat tau fragment), heparin-induced fibrillization, ThT fluorescence; series mostly up to 57.4 µM
Outline: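 K18 P301L tau (15 uM + 0.24 uM Alexa 594-tagged), heparin 20 uM, NaOAc pH 7, 6 h 37 C; ThT 30 uM, 1 h RT, ex 450/em 510 nm.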
Potency is read from the fitted curve at half-maximal effect; tags tell the direction and shape of the fitted curve.

UniProt P10636, sequence (P10636 whole entry, looked up): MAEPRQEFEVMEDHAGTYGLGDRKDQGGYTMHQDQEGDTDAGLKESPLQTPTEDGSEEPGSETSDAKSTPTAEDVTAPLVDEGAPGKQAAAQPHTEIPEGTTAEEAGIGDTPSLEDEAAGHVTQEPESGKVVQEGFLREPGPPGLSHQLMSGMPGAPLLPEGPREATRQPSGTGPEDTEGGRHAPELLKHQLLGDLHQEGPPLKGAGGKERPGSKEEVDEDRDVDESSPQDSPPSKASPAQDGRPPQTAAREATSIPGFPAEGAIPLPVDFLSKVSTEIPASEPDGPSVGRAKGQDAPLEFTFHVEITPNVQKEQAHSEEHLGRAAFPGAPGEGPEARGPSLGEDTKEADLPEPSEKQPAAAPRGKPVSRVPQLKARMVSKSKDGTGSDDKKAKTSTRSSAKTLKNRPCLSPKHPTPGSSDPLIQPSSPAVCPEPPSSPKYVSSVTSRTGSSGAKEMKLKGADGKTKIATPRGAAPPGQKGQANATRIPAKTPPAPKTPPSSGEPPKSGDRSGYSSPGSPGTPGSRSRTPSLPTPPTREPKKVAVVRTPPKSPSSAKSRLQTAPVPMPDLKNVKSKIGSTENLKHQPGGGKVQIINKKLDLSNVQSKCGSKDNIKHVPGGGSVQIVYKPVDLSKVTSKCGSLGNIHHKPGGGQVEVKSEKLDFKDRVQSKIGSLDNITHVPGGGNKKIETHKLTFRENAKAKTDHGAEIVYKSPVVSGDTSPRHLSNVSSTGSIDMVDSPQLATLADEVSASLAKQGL

Row | Structure (SMILES) | Potency
1 | CC(Nc1n[nH]c(=S)[nH]c1=O)C(=O)OCc1ccccc1 (configuration not stated) | inconclusive: 31.6 µM [inhibitor, single point]
2 | COC(=O)c1ccc(NC(=O)CC2C(=O)N(c3ccccc3)C(=O)N2Cc2cccs2)cc1 (configuration not stated) | inactive
3 | Cc1cccc(C)c1-n1c(C)cc(/C=C2\C(=O)NN(c3ccccc3)C2=O)c1C | inconclusive: 14.1 µM [inhibitor, partial curve]
4 | CCN(CC)C(=O)c1sc2c(c1C)c(=O)n(-c1ccc(OC)cc1OC)c(=O)n2CC(=O)Nc1ccccc1 | inactive
5 | O=C(c1cccc(F)c1)N1CCN=C1SCc1cccnc1 | inconclusive: 39.8 µM [inhibitor, single point]
6 | CCC(=O)NC(Nc1nc(C)cs1)(C(=O)OC)C(F)(F)F (configuration not stated) | inactive
7 | Cc1cccc(N2CCN(c3nc4ccccc4c4nnc(C)n34)CC2)c1C | inconclusive: 31.6 µM [inhibitor, single point]
8 | O=C(NC(=S)N1CCCCCC1)c1ccccc1Cl | inactive
9 | Cc1ccc(-c2nc(N)s[n+]2-c2ccccc2)cc1 | inactive
10 | O=C1c2ccccc2NC(c2cn[nH]c2-c2ccccc2)N1O (configuration not stated) | inconclusive: 7.08 µM [inhibitor, single point]
11 | O=C1CCCC2=C1C(c1cccc(O)c1)C1=C(N2)c2ccccc2C1=O (configuration not stated) | inconclusive: 1.78 µM [inhibitor, single point]
12 | C/C(Cc1ccccc1)=N\NC(=O)CNC(=O)/C=C\c1ccccc1 | inconclusive: 17.8 µM [inhibitor, single point]
13 | OCCCNC(=S)Nc1ccc(Nc2ccccc2)cc1 | inactive
14 | O=C(/C=C/c1cc2ccccc2o1)c1ccccc1O | inconclusive: 11.2 µM [inhibitor, partial curve]
15 | COc1c[nH]n(C2CCCCC2)c(=O)c1=O | inactive
16 | CCOC(=O)C1=C(C)NC2=C(C(=O)C(C(=O)OCC)C(c3cccc(OC)c3)C2)C1c1ccccn1 (configuration not stated) | inconclusive: 39.8 µM [inhibitor, single point]
17 | CSc1ncc(C(=O)NCc2cccc(C)c2)c(-c2ccccc2)n1 | inactive
18 | CCOc1cc(C(=O)OCc2ccc(C(=O)OC)o2)cc(Br)c1OC | inconclusive: 28.2 µM [inhibitor, partial curve]
19 | CCN(Cc1ccccc1)Cc1c(C)[nH]c2c(C)c(C)ccc2c1=O | inactive
20 | Nc1nonc1NC(=O)CSc1ncccc1C(=O)O | inactive
21 | CCCCC(=O)OC1=CN(Cc2ccccc2)S(=O)(=O)c2ccccc21 | inconclusive: 25.1 µM [inhibitor, single point]
22 | COc1ccc2c(c1)OC/C(=C/c1ccc(O)c(O)c1)C2=O | inconclusive: 14.1 µM [inhibitor, partial curve]
23 | CN1C(=O)/C(=C/c2ccc(O)c([N+](=O)[O-])c2)N(C)C1=S | active: 4.47 µM
24 | O=C1/C(=C/c2ccc(F)cc2)SC(=S)N1Nc1ncc(C(F)(F)F)cc1Cl | inconclusive: 31.6 µM [inhibitor, single point]

Row | Structure (SMILES) | Potency
25 | Clc1ccc(-c2nnc(SCc3ccon3)o2)c(Cl)c1 | inactive
26 | COc1ccc(NC(=O)c2ccc(NC(=O)CCS(=O)(=O)c3cccs3)cc2)cc1Cl | inconclusive: 17.8 µM [activator, single point]
27 | CCOc1ccc(NC(=O)N(CCN(C)C)C(C)c2ccncc2)cc1 (configuration not stated) | inactive
28 | CC(C)c1ccc(C2NC(=O)c3c(sc4c3CCN(C)C4)N2)cc1 (configuration not stated) | inconclusive: 3.16 µM [inhibitor, partial curve]
29 | CCOc1ccccc1NC(=O)Cn1c(=O)n(-c2ccc(C)cc2)c(=O)c2c1cnn2C | inactive
30 | CCOc1ccc(OCc2ccc(C(=O)N3CCCC3)o2)cc1 | inconclusive: 15.8 µM [inhibitor, partial curve]
31 | COc1ccccc1C(=O)NNC(=O)c1cccc(F)c1 | inactive
32 | Cc1cc(C)c2cc(C#N)c(SCC(=O)Nc3ccc4c(c3)OCO4)nc2c1 | inconclusive: 17.8 µM [inhibitor, partial curve, poor fit]
33 | Cc1ccc(C(=O)N2CCN(c3ccc(NC(=O)c4cccnc4)cc3)CC2)cc1 | inconclusive: 15.8 µM [inhibitor, partial curve]
34 | NC(=O)CC(NC(=O)Cc1ccc(Cl)cc1)c1ccc(NCCc2ccccc2F)c([N+](=O)[O-])c1 (configuration not stated) | inconclusive: 12.6 µM [inhibitor, partial curve, poor fit]
35 | CC1(c2ccccc2)NC(=O)N(NC(=O)CSc2n[nH]c(N)n2)C1=O (configuration not stated) | inactive
36 | COc1ccc(OCC(=O)NCc2ccc3c(c2)CCN3C(=O)c2cccc(C)c2)cc1 | inactive
37 | O=[N+]([O-])c1ccc(/C=N/Nc2nc(N3CCCCC3)nc(N3CCCCC3)n2)o1 | inconclusive: 14.1 µM [inhibitor, partial curve]
38 | O=C(CCCn1c(=O)[nH]c2cc(Cl)ccc2c1=O)N1CCN(c2ccc([N+](=O)[O-])cc2)CC1 | inconclusive: 0.355 µM [inhibitor, full curve]
39 | COC(=O)c1c(N)n(-c2ccc(NC(C)=O)cc2)c2nc3ccccc3nc12 | inconclusive: 15.8 µM [inhibitor, partial curve]
40 | Oc1ccc(C(c2nnnn2C2CCCC2)N2CCc3ccccc3C2)cc1 (configuration not stated) | inconclusive: 22.4 µM [inhibitor, partial curve]
41 | Cc1cccc(NC(=O)CSc2nnc(C)n2Cc2ccccc2)c1 | inactive
42 | CCc1ccc(CNC(=O)Cn2nc(C)c3nn(-c4ccc(Cl)cc4)c(C)c3c2=O)cc1 | inactive
43 | N#Cc1c2n(c3c(=S)nc[nH]c13)CCCCC2 | inactive
44 | COc1ccc(N2C(=O)CC(N3CCCCC3)C2=O)cc1 (configuration not stated) | inconclusive: 15.8 µM [inhibitor, partial curve]
45 | C#CCNC(=O)C1=C[C@@H](c2cn(C(C)=O)c3ccccc23)C[C@@H](OCCCCO)O1 | inconclusive: 39.8 µM [inhibitor, single point]
46 | CCN1/C(=C\C(C)=O)Sc2ccc(OC)cc21 | inactive
47 | COc1ccc(-c2csc(Nc3ccc(S(=O)(=O)Nc4cc(C)on4)cc3)n2)cc1C | active: 12.6 µM
